Measurements taken from US9974865B2, “Antibody drug conjugates (ADC) that bind to FLT3 proteins” (AGENSYS, INC., priority 2015, dated 2018).
“Also recorded” adds a separate entry of the source.

Tests used:
[1] = system: SEM cells; assay: FACS binding to cell lines; parameters: species or system human; conditions: SEM (B-ALL); antibody 10 ug/ml
Experimental: (§1) CHv62.21 was tested for binding to AML and B-ALL cell lines grown in vitro. (See, FIG. 15A-M). Briefly, CHv62.21 and an isotype matched control antibody were biotinylated using NHS LC biotin. In vitro, exponentially grown cancer cell lines were used for all experiments. Cells were harvested by and washed by centrifugation. Cells were Fc blocked to reduce non-specific binding. Antibodies were diluted to 10 ug/ml final concentration and co-incubated with cells at 4° C. for 1 hour. At the end of the incubation, cells were washed and incubated with secondary detection Streptavidin-PE antibody at a final 1:200 (2.5 ug/ml) dilution for 1 hour at 4° C. After washing un-bound secondary antibody, cells were analyzed by FACS and geometric mean fluorescence was determined and reported. Fluorescence ratio was calculated as follows: Geo mean cHv62.21/Geo mean isotype control=MFR, a measure of fold expression above isotype control.

[2] = system: THP-1 cells; assay: FACS binding to cell lines; parameters: species or system human; conditions: THP-1 (AML); antibody 10 ug/ml
Experimental: as §1

[3] = system: EOL-1 cells; assay: FACS binding to cell lines; parameters: species or system human; conditions: EOL-1 (AML); antibody 10 ug/ml
Experimental: as §1

[4] = system: PL-21 cells; assay: FACS binding to cell lines; parameters: species or system human; conditions: PL-21 (AML); antibody 10 ug/ml
Experimental: as §1

[5] = system: RS4; 11 cells; assay: FACS binding to cell lines; parameters: species or system human; conditions: 11 (B-ALL), antibody 10 ug/ml
Experimental: as §1

[6] = system: MOLM-13 cells; assay: FACS binding to cell lines; parameters: species or system human; conditions: MOLM-13 (AML); antibody 10 ug/ml
Experimental: as §1

[7] = system: NALM-1 cells; assay: FACS binding to cell lines; parameters: species or system human; conditions: NALM-1 (CML); antibody 10 ug/ml
Experimental: as §1

[8] = system: Karpas-299 cells; assay: FACS binding to cell lines; parameters: species or system human; conditions: Karpas-299 (ALCL)
Experimental: as §1

[9] = system: MONOMAC-1 cells; assay: FACS binding to cell lines; parameters: species or system human; conditions: MONOMAC-1 (AML); antibody 10 ug/ml
Experimental: as §1

[10] = system: MV-4-11 cells; assay: FACS binding to cell lines; parameters: species or system human; conditions: MV-4-11 (AML); antibody 10 ug/ml
Experimental: as §1

[11] = system: REH cells; assay: FACS binding to cell lines; parameters: species or system human; conditions: REH (ALL); antibody 10 ug/ml
Experimental: as §1

[12] = system: SKM-1 cells; assay: FACS binding to cell lines; parameters: species or system human; conditions: SKM-1 (AML); antibody 10 ug/ml
Experimental: as §1

[13] = molecular target: FLT3 recombinant protein (Homo sapiens, UniProt P36888); assay: Binding to FLT3 recombinant protein by ELISA; conditions: CHO-derived vs hybridoma-derived MAb
Experimental: The CHv62.21 MAb secreted from recombinant cells is also evaluated for binding to FLT3 recombinant protein by ELISA.

[14] = system: EOL-1 and SEM target cells; assay: ADCC assay (CytoTox 96, LDH release) with human PBMC effector cells; format: cell-based; conditions: E:T=100:1, antibody 2.5 ug/mL, 4 hours
Experimental: CHv62.21 and CHv62.21pAF was tested for ADCC activity in vitro. Briefly, the naked and ADC anti-FLT3 monoclonal antibodies, CHv62.21 and CHv62.21pAF were tested for their ability to mediate antibody dependent cytotoxicity activity (ADCC) using the target cell lines EOL-1 and SEM in the presence of the effector cells, normal human PBMCs using the CytoTox 96® Non-Radioactive Cytotoxicity Assay (Promega, G1780).
One (1) day prior to performing the assay, three (3) vials of the effector cells, normal human PBMC (Hemacare, Donor ID: 1888), were thawed, washed and plated into T-175 cell culture flasks in RPMI-1640 supplemented with 10% heat inactivated fetal bovine serum. The flasks were stored in an incubator at 37° C. […]
The test samples were each diluted to a final concentration of 2.5 ug/mL in assay buffer. […] The activity of lactate dehydrogenase in the supernatant was determined by using the colorimetric LDH Detection Kit; CytoTox 96® Non-Radioactive Cytotoxicity Assay (Promega) with absorbance readings taken at 490 nm.
The data was analyzed by first subtracting the average of absorbance values of the Culture Medium Background wells from all absorbance values of Experimental, Effector spontaneous, Target spontaneous and Target maximum wells. Next, the average of the corrected absorbance readings was normalized and ADCC activity was calculated by using the following formula: […]

[15] = molecular target: cell surface FLT3 (Homo sapiens, UniProt P36888); assay: Binding to cell surface FLT3 by flow cytometry
From the text: To express CHv62.21 MAb recombinantly in transfected cells, v62.21 hybridoma MAb variable heavy and light chain sequences were cloned upstream of the human heavy chain IgG1 and human light chain Igκ constant regions respectively. The complete CHv62.21 MAb human heavy chain and light chain cassettes were cloned downstream of the CMV promoter/enhancer in a cloning vector. The recombinant CHv62.21 MAb expressing construct was transfected into CHO cells for stable expression in the Lonza GS system (Lonza, Basel, Switzerland). The CHv62.21 MAb secreted from recombinant CHO cells was purified and evaluated for binding to cell surface FLT3 by flow cytometry.
To express CHv62.21pAF recombinantly in transfected cells, v62-1b21 hybridoma MAb variable heavy and light chain sequences were cloned upstream of the human heavy chain IgG1 and human light chain Igκ constant regions respectively. The complete CHv62.21 MAb human heavy chain and light chain cassettes were cloned downstream of the CMV promoter/enhancer in a cloning vector. […] The CHv62.21pAF secreted from the stable subclone was purified and evaluated for binding to cell surface FLT3 by flow cytometry.

B1: CHv62.21: FLT3 MAb, human IgG1/kappa, heavy chain SEQ ID NO: 9, light chain SEQ ID NO: 10, CHO cell ATCC PTA-121831 (antibody, listed as Homo sapiens)
heavy: EVQLVESGGGLVRPGGSLRLSCAASGFTFSGYSINWVRQAPGKGLEWVSSISSSSNYIYYADSVKGRFTISRDNAKNSLYLQMNSLRAEDTAVYYCAREGFIAGTTFDAFDIWGQGTMVTVSS[skipping human IgG1 constant region]
light: DIQMTQSPSSLSASVGDRVTITCRASQGIRNDLGWYQQKPGKAPKRLIYAASSLQSGVPSRFSGSGSGTEFTLTISSLQPEDFATYYCLQHNGFPYTFGQGTKLEIKRTVAAPSVFIFPPSDEQLKSGTASVVCLLNNFYPREAKVQWKVDNALQSGNSQESVTEQDSKDSTYSLSSTLTLSKADYEKHKVYACEVTHQGLSSPVTKSFNRGEC
modifications: CHv62.21 heavy chain; CHv62.21 light chain
[1]
  Geometric Mean (FACS): 132000
[2]
  Geometric Mean (FACS): 19700
[3]
  Geometric Mean (FACS): 14000
[4]
  Geometric Mean (FACS): 3715
[5]
  Geometric Mean (FACS): 18400
[6]
  Geometric Mean (FACS): 14000
[7]
  Geometric Mean (FACS): 12900
[8]
  MFR (Geo mean cHv62.21/Geo mean isotype control): 1
[8]; antibody 10 ug/ml, 4° C. 1 hour
  Geometric Mean (FACS): 634
[9]
  Geometric Mean (FACS): 11400
[10]
  Geometric Mean (FACS): 2875
[11]
  Geometric Mean (FACS): 16200
[12]
  Geometric Mean (FACS): 3208
[13]
  binding to FLT3 recombinant protein: identical between MAb material derived from CHO and from hybridoma cells
[14]
  ADCC activity: does not Mediate Antibody Dependent Cytotoxicity Activity; also recorded: do not show ADCC activity
[15]
  binding to cell surface FLT3: binds to FLT3 on the cell surface; also recorded: binds FLT3 similarly to the v62.21 purified from hybridoma
